From a compilation of properties of binary mixtures (doi:10.1016/j.molliq.2020.112816)
The densities may have been worked out from excess volumes.

Test: xn = mol fraction of the nth substance listed
Conditions: 101 kPa

NC=O + CCCC[n+]1ccn(C)c1.F[B-](F)(F)F
mass density [kg/m3]
Conditions | 293.15 K | 298.15 K | 303.15 K | 308.15 K | 313.15 K | 318.15 K
x2 = 0 | – | 1129.1 | 1125.4 | 1121 | 1116.7 | 1112
x2 = 0.0675 | 1153.4 | 1150.1 | 1146.9 | 1143 | 1139.2 | 1135.1
x2 = 0.135 | 1167.6 | 1164.6 | 1161.5 | 1157.8 | 1154.3 | 1150.6
x2 = 0.2054 | 1178.4 | 1175.4 | 1172.4 | 1169 | – | 1161.9
x2 = 0.2758 | – | – | 1180.6 | – | 1173.8 | –
x2 = 0.3629 | – | 1190.9 | 1188 | 1184.7 | – | 1177.8
x2 = 0.4499 | 1198.9 | 1196.1 | – | – | – | 1183.3
x2 = 0.5095 | – | 1198.9 | 1196 | 1192.8 | 1189.6 | 1186.2
x2 = 0.569 | – | 1201 | 1198.2 | 1195.1 | 1191.8 | –
x2 = 0.6639 | 1206 | 1203.3 | 1200.6 | 1197.4 | 1194.2 | –
x2 = 0.7588 | 1207.1 | – | 1201.7 | 1198.5 | 1195.3 | 1192
x2 = 0.8107 | 1207.3 | – | – | 1198.6 | 1195.4 | 1192
x2 = 0.8626 | 1207.2 | 1204.4 | – | 1198.4 | 1195.1 | –
x2 = 0.9313 | 1206.6 | 1203.8 | – | – | 1194.1 | 1190.4

CCCC[n+]1ccn(C)c1.F[B-](F)(F)F + NC=O
x1 = 1
Conditions | mass density [kg/m3]
293.15 K | 1205.5
298.15 K | 1202.6
303.15 K | 1199.3
313.15 K | 1192.2
